From ChEMBL document CHEMBL5634115, “Exploring novel anticancer pyrazole benzenesulfonamides featuring tail approach strategy as carbonic anhydrase inhibitors” (Eur J Med Chem, 2023)

Key:
Experiment in all cases: cells
MOLT-4 [1] = type: functional; conditions: Homo sapiens, time 48 hrs
RPMI-8226 = type: functional; conditions: Homo sapiens, time 48 hrs
EKVX = type: functional; conditions: Homo sapiens, time 48 hrs
NCI-H522 = type: functional; conditions: Homo sapiens, time 48 hrs
HCC 2998 [2] = type: functional; conditions: Homo sapiens, time 48 hrs
SW-620 [3] = type: functional; conditions: Homo sapiens, time 48 hrs
SF-295 = type: functional; conditions: Homo sapiens, time 48 hrs
SNB-19 [4] = type: functional; conditions: Homo sapiens, time 48 hrs
U-251 [5] = type: functional; conditions: Homo sapiens, time 48 hrs
M14 [6] = type: functional; conditions: Homo sapiens, time 48 hrs
SK-MEL-2 [7] = type: functional; conditions: Homo sapiens, time 48 hrs
SK-MEL-5 [8] = type: functional; conditions: Homo sapiens, time 48 hrs
OVCAR-5 [9] = type: functional; conditions: Homo sapiens, time 48 hrs
OVCAR-8 [10] = type: functional; conditions: Homo sapiens, time 48 hrs
SK-OV-3 [11] = type: functional; conditions: Homo sapiens, time 48 hrs
A498 [12] = type: functional; conditions: Homo sapiens, time 48 hrs
ACHN = type: functional; conditions: Homo sapiens, time 48 hrs
SN12C [13] = type: functional; conditions: Homo sapiens, time 48 hrs
TK-10 [14] = type: functional; conditions: Homo sapiens, time 48 hrs
UO-31 [15] = type: functional; conditions: Homo sapiens, time 48 hrs
PC-3 [16] = type: functional; conditions: Homo sapiens, time 48 hrs
DU-145 = type: functional; conditions: Homo sapiens, time 48 hrs
MDA-MB-231 = type: functional; conditions: Homo sapiens, time 48 hrs
Hs-578T [17] = type: functional; conditions: Homo sapiens, time 48 hrs
BT-549 [18] = type: functional; conditions: Homo sapiens, time 48 hrs
HL-60(TB) = type: functional; conditions: Homo sapiens, time 48 hrs
MOLT-4 [19] = type: functional; conditions: Homo sapiens, time 48 hrs; remark: listed apart in the source
COLO 205 = type: functional; conditions: Homo sapiens, time 48 hrs
HCC 2998 [20] = type: functional; conditions: Homo sapiens, time 48 hrs; remark: listed apart in the source
HCT-116 = type: functional; conditions: Homo sapiens, time 48 hrs
HCT-15 = type: functional; conditions: Homo sapiens, time 48 hrs
SW-620 [21] = type: functional; conditions: Homo sapiens, time 48 hrs; remark: listed apart in the source
SNB-19 [22] = type: functional; conditions: Homo sapiens, time 48 hrs; remark: listed apart in the source
SNB-75 = type: functional; conditions: Homo sapiens, time 48 hrs
U-251 [23] = type: functional; conditions: Homo sapiens, time 48 hrs; remark: listed apart in the source
LOX IMVI = type: functional; conditions: Homo sapiens, time 48 hrs
Malme-3M = type: functional; conditions: Homo sapiens, time 48 hrs
M14 [24] = type: functional; conditions: Homo sapiens, time 48 hrs; remark: listed apart in the source
MDA-MB-435 = type: functional; conditions: Homo sapiens, time 48 hrs
SK-MEL-2 [25] = type: functional; conditions: Homo sapiens, time 48 hrs; remark: listed apart in the source
SK-MEL-28 = type: functional; conditions: Homo sapiens, time 48 hrs
OVCAR-5 [26] = type: functional; conditions: Homo sapiens, time 48 hrs; remark: listed apart in the source
OVCAR-8 [27] = type: functional; conditions: Homo sapiens, time 48 hrs; remark: listed apart in the source
NCI/ADR-RES [28] = type: functional; conditions: Homo sapiens, time 48 hrs
CAKI-1 [29] = type: functional; conditions: Homo sapiens, time 48 hrs
RXF 393 = type: functional; conditions: Homo sapiens, time 48 hrs
PC-3 [30] = type: functional; conditions: Homo sapiens, time 48 hrs; remark: listed apart in the source
BT-549 [31] = type: functional; conditions: Homo sapiens, time 48 hrs; remark: listed apart in the source
MDA-MB-468 = type: functional; conditions: Homo sapiens, time 48 hrs
K562 = conditions: Homo sapiens, K562, 48 h
CCRF-CEM = conditions: Homo sapiens, 48 h, read-out: LC50
SR = conditions: Homo sapiens, 48 h, read-out: LC50
NCI-H322M = conditions: Homo sapiens, 48 h, read-out: LC50
NCI-H460 = conditions: Homo sapiens, NCI-H460, 48 h, read-out: LC50
SW-620 [32] = conditions: Homo sapiens, SW-620, 48 h, read-out: LC50
SK-MEL-5 [33] = conditions: Homo sapiens, SK-MEL-5, 48 h, read-out: LC50
IGROV-1 = conditions: Homo sapiens, IGROV-1, 48 h, read-out: LC50
NCI/ADR-RES [34] = conditions: Homo sapiens, 48 h, read-out: LC50
SK-OV-3 [35] = conditions: Homo sapiens, SK-OV-3, 48 h, read-out: LC50
A498 [36] = conditions: Homo sapiens, A498, 48 h, read-out: LC50
CAKI-1 [37] = conditions: Homo sapiens, CAKI-1, 48 h, read-out: LC50
SN12C [38] = conditions: Homo sapiens, 48 h, read-out: LC50
TK-10 [39] = conditions: Homo sapiens, TK-10, 48 h, read-out: LC50
UO-31 [40] = conditions: Homo sapiens, UO-31, 48 h, read-out: LC50
Hs-578T [41] = conditions: Homo sapiens, 48 h, read-out: LC50
BT-549 [42] = conditions: Homo sapiens, BT-549, 48 h, read-out: LC50

CCOC(=O)c1ccc(N/N=C/c2cn(-c3ccc(S(N)(=O)=O)cc3)nc2-c2ccc(OC)cc2)cc1
GI50 (MOLT-4 [1]): 2.72 µM | GI50 (RPMI-8226): 3.17 µM | GI50 (EKVX): 3.44 µM | GI50 (NCI-H522): 2.15 µM | GI50 (HCC 2998 [2]): 2.07 µM | GI50 (SW-620 [3]): 3.86 µM | GI50 (SF-295): 4.3 µM | GI50 (SNB-19 [4]): 4.21 µM | GI50 (U-251 [5]): 4.1 µM | GI50 (M14 [6]): 2.13 µM | GI50 (SK-MEL-2 [7]): 3.5 µM | GI50 (SK-MEL-5 [8]): 1.8 µM | GI50 (OVCAR-5 [9]): 3.34 µM | GI50 (OVCAR-8 [10]): 3.79 µM | GI50 (SK-OV-3 [11]): 8.18 µM | GI50 (A498 [12]): 9.46 µM | GI50 (ACHN): 3.29 µM | GI50 (SN12C [13]): 8.02 µM | GI50 (TK-10 [14]): 19.2 µM | GI50 (UO-31 [15]): 2.58 µM | GI50 (PC-3 [16]): 2.86 µM | GI50 (DU-145): 3.02 µM | GI50 (MDA-MB-231): 2.64 µM | GI50 (Hs-578T [17]): 2.53 µM | GI50 (BT-549 [18]): 4.79 µM | TGI (HL-60(TB)): 10.2 µM | TGI (MOLT-4 [19]): 7.85 µM | TGI (COLO 205): 45 µM | TGI (HCC 2998 [20]): 4.42 µM | TGI (HCT-116): 14.4 µM | TGI (HCT-15): 8.35 µM | TGI (SW-620 [21]): > 100 µM | TGI (SNB-19 [22]): > 100 µM | TGI (SNB-75): 9.2 µM | TGI (U-251 [23]): > 100 µM | TGI (LOX IMVI): 3.5 µM | TGI (Malme-3M): 17.5 µM | TGI (M14 [24]): 4.82 µM | TGI (MDA-MB-435): 5.48 µM | TGI (SK-MEL-2 [25]): 23.9 µM | TGI (SK-MEL-28): 74.4 µM | TGI (OVCAR-5 [26]): 17 µM | TGI (OVCAR-8 [27]): > 100 µM | TGI (NCI/ADR-RES [28]): 7.2 µM | TGI (CAKI-1 [29]): > 100 µM | TGI (RXF 393): 3.77 µM | TGI (PC-3 [30]): > 100 µM | TGI (BT-549 [31]): > 100 µM | TGI (MDA-MB-468): 6.04 µM | TGI (K562): 14.5 µM | CC50 (CCRF-CEM): > 100 µM | CC50 (SR): > 100 µM | CC50 (NCI-H322M): > 100 µM | CC50 (NCI-H460): > 100 µM | CC50 (SW-620 [32]): > 100 µM | CC50 (SK-MEL-5 [33]): 6.76 µM | CC50 (IGROV-1): > 100 µM | CC50 (NCI/ADR-RES [34]): > 100 µM | CC50 (SK-OV-3 [35]): > 100 µM | CC50 (A498 [36]): > 100 µM | CC50 (CAKI-1 [37]): > 100 µM | CC50 (SN12C [38]): > 100 µM | CC50 (TK-10 [39]): > 100 µM | CC50 (UO-31 [40]): > 100 µM | CC50 (Hs-578T [41]): > 100 µM | CC50 (BT-549 [42]): > 100 µM
